According to a collection of fitness landscapes (doi:10.1126/science.1257360):
The other results are listed elsewhere or left out.

B1: PhoQ; a variant is named by its letters at X, in order, P23837 (parent)
chain: MKKLLRLFFPLSLRVRFLLATAAVVLVLSLAYGMVALIGYSVSFDKTTFRLLRGESNLFYTLAKWENNKLHVELPENIDKQSPTMTLIYDENGQLLWAQRDVPWLMKMIQPDWLKSNGFHEIEADVNDTSLLLSGDHSIQQQLQEVREDDDDAEMTHSVAVNVYPATSRMPKLTIVVVDTIPVELKSSYMVWSWFIYVLSANLLLVIPLLWVAAWWSLRPIEALAKEVRELEEHNRELLNPATTRELTSLVRNLNRLLKSERERYDKYRTTLTDLTHSLKTPLXXLQXXLRSLRSEKMSVSDAEPVMLEQISRISQQIGYYLHRASMRGGTLLSRELHPVAPLLDNLTSALNKVYQRKGVNISLDISPEISFVGEQNDFVEVMGNVLDNACKYCLEFVEISARQTDEHLYIVVEDDGPGIPLSKREVIFDRGQRVDTLRPGQGVGLAVAREITEQYEGKIVAGESMLGGARMEVIFGRQHSAPKDE

Variants of: B1
Test: enrichment ratio after two sorts for PhoP signalling (ratio (wild type AVST 3.29)); higher = more functional
Conditions: with PhoP (E. coli)

| Variant | enrichment ratio |
| --- | --- |
| DQWI | ≤ 0.25 |
| AGYG | ≤ 0.25 |
| KGWV | ≤ 0.25 |
| SCHY | ≤ 0.25 |
| ECGP | ≤ 0.25 |
| QNWS | 8.87 |
| DCIH | ≤ 0.25 |
| EHWC | ≤ 0.25 |
| SIIY | 1 |
| MMVF | ≤ 0.25 |
| WWFD | ≤ 0.25 |
| YMKV | ≤ 0.25 |
| YQIC | ≤ 0.25 |
| MGCS | 6.13 |
| TKEK | ≤ 0.25 |
| YPIH | ≤ 0.25 |
| KPVM | ≤ 0.25 |
| SDTF | ≤ 0.25 |
| RVPL | ≤ 0.25 |
| PTQC | ≤ 0.25 |
| DGHQ | ≤ 0.25 |
| RTQF | ≤ 0.25 |
| AQNW | ≤ 0.25 |
| SQIS | 13.9 |
| SPSL | ≤ 0.25 |
| DNSG | ≤ 0.25 |

| Variant | enrichment ratio |
| --- | --- |
| SITY | 12.7 |
| VASP | ≤ 0.25 |
| RQCK | ≤ 0.25 |
| HESG | ≤ 0.25 |
| TLAH | 7.64 |
| TSVW | ≤ 0.25 |
| PERI | ≤ 0.25 |
| GGAW | ≤ 0.25 |
| MVQH | ≤ 0.25 |
| DGRI | ≤ 0.25 |
| YMPV | ≤ 0.25 |
| EPDH | ≤ 0.25 |
| FDKW | ≤ 0.25 |
| NNCQ | ≤ 0.25 |
| IKYV | ≤ 0.25 |
| MQYT | 3.84 |
| NARL | ≤ 0.25 |
| MLTS | ≤ 0.25 |
| YGCC | ≤ 0.25 |
| YKDE | ≤ 0.25 |
| NLTF | ≤ 0.25 |
| HHDW | ≤ 0.25 |
| QVEP | ≤ 0.25 |
| FKYG | ≤ 0.25 |
| PIGE | ≤ 0.25 |
| TEVW | 7.43 |

| Variant | enrichment ratio |
| --- | --- |
| ELLN | ≤ 0.25 |
| RCMR | ≤ 0.25 |
| INKE | ≤ 0.25 |
| KTKI | ≤ 0.25 |
| YKKC | ≤ 0.25 |
| HFYI | ≤ 0.25 |
| GLKG | ≤ 0.25 |
| RETM | ≤ 0.25 |
| GQGF | ≤ 0.25 |
| SGLW | ≤ 0.25 |
| AQVA | 14.1 |
| IINY | ≤ 0.25 |
| HPPF | ≤ 0.25 |
| FVQR | ≤ 0.25 |
| QDWV | ≤ 0.25 |
| NLTH | ≤ 0.25 |
| MPDS | ≤ 0.25 |
| WNFR | ≤ 0.25 |
| PHVK | ≤ 0.25 |
| EVGC | ≤ 0.25 |
| YQHM | ≤ 0.25 |
| IMWW | ≤ 0.25 |
| VTTD | ≤ 0.25 |
| WRTH | 1.58 |
| YAPL | ≤ 0.25 |
| VEPN | ≤ 0.25 |

| Variant | enrichment ratio |
| --- | --- |
| AQWC | ≤ 0.25 |
| QNPT | ≤ 0.25 |
| NEIR | ≤ 0.25 |
| VRCV | ≤ 0.25 |
| FEWV | ≤ 0.25 |
| HWGQ | ≤ 0.25 |
| QTMY | ≤ 0.25 |
| DRTC | ≤ 0.25 |
| CYSH | ≤ 0.25 |
| TMDC | ≤ 0.25 |
| WMFP | ≤ 0.25 |
| GETD | ≤ 0.25 |
| HIWN | ≤ 0.25 |
| NHIM | ≤ 0.25 |
| LEPW | ≤ 0.25 |
| MDLW | ≤ 0.25 |
| FQPF | ≤ 0.25 |
| LYMV | ≤ 0.25 |
| RYEP | ≤ 0.25 |
| KLIK | ≤ 0.25 |
| ICGK | ≤ 0.25 |
| FKLD | ≤ 0.25 |
| TYAD | ≤ 0.25 |
| LFTH | ≤ 0.25 |
| FCHN | ≤ 0.25 |
| DLEM | ≤ 0.25 |

| Variant | enrichment ratio |
| --- | --- |
| LLVI | ≤ 0.25 |
| ACIR | 1.38 |
| HPPS | ≤ 0.25 |
| SFIY | ≤ 0.25 |
| KCQI | ≤ 0.25 |
| SWVM | ≤ 0.25 |
| CHYS | ≤ 0.25 |
| SYMW | ≤ 0.25 |
| EGRY | ≤ 0.25 |
| SRQK | ≤ 0.25 |
| HSGN | ≤ 0.25 |
| TGIM | ≤ 0.25 |
| RQCE | ≤ 0.25 |
| IRKK | ≤ 0.25 |
| IFLL | ≤ 0.25 |
| SKCP | ≤ 0.25 |
| MMFI | ≤ 0.25 |
| QKPD | ≤ 0.25 |
| DPFV | ≤ 0.25 |
| HTMA | ≤ 0.25 |
| QGHQ | ≤ 0.25 |
| LCPM | ≤ 0.25 |
| HPWW | ≤ 0.25 |
| AHHA | ≤ 0.25 |
| QNDN | ≤ 0.25 |
| FCKE | ≤ 0.25 |

| Variant | enrichment ratio |
| --- | --- |
| PHGK | ≤ 0.25 |
| HMTE | ≤ 0.25 |
| IQIE | ≤ 0.25 |
| FTRE | ≤ 0.25 |
| IDMH | ≤ 0.25 |
| YVHN | ≤ 0.25 |
| TCEC | ≤ 0.25 |
| QTTP | ≤ 0.25 |
| QMCV | ≤ 0.25 |
| HWQQ | ≤ 0.25 |
| AKDW | ≤ 0.25 |
| MQKH | ≤ 0.25 |
| NIAI | ≤ 0.25 |
| LQLY | ≤ 0.25 |
| VIKC | ≤ 0.25 |
| SEID | ≤ 0.25 |
| TFCS | 1.98 |
| MNRF | ≤ 0.25 |
| YPLY | ≤ 0.25 |
| MIEG | ≤ 0.25 |
| PAPN | ≤ 0.25 |
| AKHM | ≤ 0.25 |
| TYNL | 3.68 |
